In PMC4336329 (PLoS ONE, 2015):
Hit rate of the full screen: of about 310,000 compounds, about 14,000 (4.5%) showed an effect of 50% or more. The effect is printed as a negative number. This is one part of the list.

Target: human ether-à-go-go-related gene (hERG) potassium channel (human, UniProt Q12809)
Assay: primary screen, population patch clamp on CHO cells stably expressing hERG
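Also: peak tail current of the secondary pulse compared with the same well before compound.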

Sequence of human ether-à-go-go-related gene (hERG) potassium channel (Q12809 whole entry, looked up): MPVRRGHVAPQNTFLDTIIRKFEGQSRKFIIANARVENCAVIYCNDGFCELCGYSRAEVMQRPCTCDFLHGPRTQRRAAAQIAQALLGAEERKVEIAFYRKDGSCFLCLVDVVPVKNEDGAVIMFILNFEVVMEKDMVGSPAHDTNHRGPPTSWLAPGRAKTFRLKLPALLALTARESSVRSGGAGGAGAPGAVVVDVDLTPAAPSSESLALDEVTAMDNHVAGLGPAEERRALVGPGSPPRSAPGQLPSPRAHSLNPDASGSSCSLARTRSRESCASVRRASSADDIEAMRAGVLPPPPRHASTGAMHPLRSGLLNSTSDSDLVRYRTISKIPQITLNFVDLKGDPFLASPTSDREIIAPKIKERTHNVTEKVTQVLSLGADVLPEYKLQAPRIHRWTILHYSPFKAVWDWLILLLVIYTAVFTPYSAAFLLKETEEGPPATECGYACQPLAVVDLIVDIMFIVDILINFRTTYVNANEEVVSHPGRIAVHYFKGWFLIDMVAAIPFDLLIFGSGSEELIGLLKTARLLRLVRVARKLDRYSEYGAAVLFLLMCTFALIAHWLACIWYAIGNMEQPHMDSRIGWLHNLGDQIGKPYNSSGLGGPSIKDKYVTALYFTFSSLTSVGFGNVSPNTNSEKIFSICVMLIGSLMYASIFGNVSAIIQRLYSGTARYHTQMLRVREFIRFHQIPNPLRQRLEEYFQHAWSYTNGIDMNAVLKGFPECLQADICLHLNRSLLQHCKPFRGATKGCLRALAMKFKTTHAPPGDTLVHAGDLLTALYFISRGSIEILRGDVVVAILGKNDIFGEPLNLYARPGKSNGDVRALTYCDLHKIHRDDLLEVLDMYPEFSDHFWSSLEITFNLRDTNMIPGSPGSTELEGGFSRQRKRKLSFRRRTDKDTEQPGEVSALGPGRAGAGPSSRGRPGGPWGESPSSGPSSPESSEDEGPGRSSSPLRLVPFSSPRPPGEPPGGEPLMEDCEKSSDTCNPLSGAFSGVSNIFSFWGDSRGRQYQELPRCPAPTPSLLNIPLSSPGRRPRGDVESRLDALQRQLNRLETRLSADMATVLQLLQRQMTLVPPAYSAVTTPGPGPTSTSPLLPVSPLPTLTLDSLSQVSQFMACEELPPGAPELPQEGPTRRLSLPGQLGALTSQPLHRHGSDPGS

SMILES	hERG current change (%, negative = inhibition) at 10uM [%]
Cc1ccc(C(C(=O)NC2CCCC2)N(Cc2cccs2)C(=O)c2csnn2)o1 (centres unmarked)	-15.9
N#Cc1c(-c2ccccc2)nc2n(-c3ccccc3)nc(C(=O)Nc3ccccc3)n2c1=O	7.12
CCCCc1ccc(S(=O)(=O)N2CCN(C(=O)c3ccco3)CC2)cc1	-66.5
Cn1c(SCC(=O)N2CCN(c3ccccc3)CC2)nnc1-c1ccco1	-14.3
Cc1ccc(S(=O)(=O)N2CCC(C(=O)Nc3nnc(C)s3)CC2)cc1	13.9
C=CCNC(=O)c1onc(CSc2ccc(F)cc2)c1C(=O)O	-1.83
Cc1cccc(-c2ocnc2C(=O)Nc2ccccc2C(=O)N2CCCC2)c1	-37
COc1ccc2nc(N(CCN(C)C)C(=O)/C=C/c3cccs3)sc2c1.Cl	-55.1
COc1ccc(/C=N\NC(=O)COc2ccccc2)c(C(=O)O)c1OC	19.4
COc1ccc(C2C(C(=O)N3CCN(C)CC3)c3ccccc3C(=O)N2C2CCCCC2)cc1 (centres unmarked)	5.26
COc1ccc([N+](=O)[O-])cc1N(CC(O)CN1C(=O)NC(C)(C)C1=O)S(=O)(=O)c1ccccc1 (centres unmarked)	10.7
Cc1cc(SCC(=O)NCC(c2cccs2)N2CCOCC2)c(C)cc1Br (centres unmarked)	-16.6
COc1ccccc1CNC(=O)C1CCN(S(=O)(=O)c2ccc3c(c2)OCCCO3)CC1	-12.5
O=C(Nc1ccc2c(c1)OCO2)c1noc2c1CCCC2	4.55
O=C(Nc1cc(Cl)cc(Cl)c1)C(NCCO)c1ccccc1 (centres unmarked)	11.9
Cc1ccc(F)cc1NC(=O)CCOc1ccccc1	0.177
COc1cc(NC(=O)CCn2c(=O)[nH]c3ccsc3c2=O)cc(OC)c1	-5.44
Cc1ccc(NC(=O)C2CCC(CNC(=O)[C@@H]3Cc4ccccc4CN3)CC2)c(C)c1 (some centres unmarked)	6.43
OCCC1CN(Cc2c(F)cccc2Cl)CCN1C1CCCCC1 (centres unmarked)	-5.6
Cc1ccc(O)c(NC(=O)c2cc(-c3ccc(F)cc3)on2)c1	6.44
OC(COCc1ccco1)CN1CCN(C(c2ccccc2)c2ccccc2)CC1 (centres unmarked)	-73.4
O=C(CCS(=O)(=O)c1ccccc1)Nc1ccc(-c2nc3ccccc3s2)cc1	10.7

SMILES	hERG current change (%, negative = inhibition) at 10uM [%]
CC1=N/C(=C\c2ccc([N+](=O)[O-])cc2)C(=O)N1c1ccc(Cl)cc1	1.51
COC(=O)[C@@H]1C[C@H]2CC[C@H](O)C[C@H]2N1Cc1ccc(C(C)(C)C)cc1	8.61
CS(=O)(=O)NCc1ccccc1Br	13.5
N#C/C(=C\c1cn(CCOc2ccccc2F)c2ccccc12)C(=O)NCc1cccs1	3.65
CCn1c(SCC(=O)N2CCC(C(N)=O)(N3CCCCC3)CC2)nnc1-c1ccccc1	14.8
O=C(c1ccccc1)c1nccc2ccccc12	-9.17
CCCNC(=S)N1CCN(c2nc(-c3cccc(OC)c3)cs2)CC1	4.31
CN1CCN(CC(O)COc2ccc(C(=O)O)cc2)CC1 (centres unmarked)	16.3
Cc1cc(-c2ccccc2)[nH]c(=O)c1S(=O)(=O)c1ccccc1	8.32
O=C(Cc1ccccc1)Nc1cccc(N2C(=O)C=CC2=O)c1	-4.45
CCCCCCN1C=CC(=C/C=C(\C#N)C(=O)OCC)C=C1	-4.32
COc1ccc(-c2nnc3ccc(SCC(=O)NCc4ccco4)nn23)cc1OC	-28.3
CCc1cccc(C)c1NC(=O)CO/N=C(\C)c1cc2ccccc2o1	-0.19
Cn1cc(C(=O)N/N=C/c2ccc(Br)c([N+](=O)[O-])c2)c2ccccc21	9.26
O=C(O)CCCCCNC(=O)CSc1nnc(-c2ccco2)n1-c1ccccc1	11.9
CNC(=O)[C@H]1O[C@@H](n2cnc3c(NCc4cccc(I)c4)ncnc32)[C@H](O)[C@@H]1O	-14.1
CC(C)NC(=O)Nc1n[nH]c(Nc2ccc(Cl)cc2)n1	11.1
O=C(c1cc(-c2cccs2)on1)N1CCN(c2ccc(F)cc2)CC1	-8.74
O=C(O)CCc1nn2cc(-c3ccccc3)nc2[nH]c1=O	12.9
Cn1c(SCC(=O)O)nnc1-c1cccc(NC(=O)c2cccc3ccccc23)c1	7.15
COc1cc(OC)cc(OCC(O)Cn2ccnc2)c1 (centres unmarked)	-1.17
COc1ccc(CNC(=O)CCc2c(C)nc3ncnn3c2C)cc1	-5.39

SMILES	hERG current change (%, negative = inhibition) at 10uM [%]
O=c1cc(N2CCc3ccccc32)[nH]c(=O)n1-c1ccc(Br)cc1	7.88
Cc1ccc(Cl)cc1N(CC(=O)Nc1cccc(N(C)S(C)(=O)=O)c1)S(C)(=O)=O	-10.7
COc1ccc(CC(=O)N2N=C(C)CC2(O)c2cccnc2)cc1 (centres unmarked)	7.26
COc1ccc(NC(=O)C(C)Sc2nnc3c4c(nc(-c5ccc(OC)cc5)n23)CC(C)(C)OC4)cc1 (centres unmarked)	3.89
COc1ccc(N2CC(C(=O)Nc3ccc(S(=O)(=O)Nc4nccs4)cc3)CC2=O)c(OC)c1 (centres unmarked)	-7.75
CCCC[C@@H]1CN=C(N)N1CCCC	22.9
COc1ccc(OC)c(C(C(=O)NCc2ccco2)N(C(=O)Cn2nnc3ccccc32)C2CC2)c1 (centres unmarked)	-3.32
CCOC(=O)c1[nH]c(C)c(C(=O)NC2CCCCC2)c1C	9.1
Cn1c(-c2cccc(Br)c2)cnc1NCc1cccnc1	-59.6
CCOC(=O)c1csc(N)c1-c1ccc([N+](=O)[O-])cc1	6.52
O=C(COC(=O)c1ccc2[nH]c3c(c2c1)CCCC3)Nc1ccccc1Cl	26.1
Cc1ccc(N(CCC#N)C(=O)COC(=O)c2cc(C)oc2C)cc1	-15.3
CCCCOC(=O)c1ccc(NC(c2ccc(C)cc2)P(=O)(OC)OC)cc1 (centres unmarked)	-11.5
CC(C(=O)NCCS(=O)(=O)c1ccc(Br)cc1)S(=O)(=O)c1ccc(Cl)cc1 (centres unmarked)	-34.3
Cn1ncc2c(Nc3cc(Cl)cc(Cl)c3)ncnc21	11.9
COC(=O)Cn1c(=O)c2c(nc3n2CCCN3CCc2ccccc2)n(C)c1=O	-39.6
CCCCn1c(N)c(N(CCOC)C(=O)c2cc(S(=O)(=O)N3CCCCC3)ccc2Cl)c(=O)[nH]c1=O	8.12
COC(=O)c1ccccc1NC(=O)Nc1cccs1	18
CC(C(=O)Nc1nc(-c2ccc(F)c(F)c2)cs1)N1C(=O)C2CC=CCC2C1=O (centres unmarked)	-5.3
Cn1cnnc1SCC(=O)Nc1cccc(C(=O)O)c1	7.72
COc1ccc(/C=C/C(=O)Nc2ccc(OC)nc2)cc1	-0.724
CNCC/C=C1/c2ccccc2CSc2ccccc21.Cl	-11.3

SMILES	hERG current change (%, negative = inhibition) at 10uM [%]
CCOc1ccccc1N1CN(Cc2ccccc2)CNC1=S	2.61
COC(=O)CCc1ccc(OCC(O)CNC(C)C)cc1.Cl (centres unmarked)	-2.4
Cc1ccc(/C(O)=C2/C(=O)C(=O)OC2c2ccc(Cl)cc2)cc1 (centres unmarked)	12.6
Cc1ccnc(NS(=O)(=O)c2ccc(NC(=O)CSc3nc(-c4ccccc4)cc(=O)[nH]3)cc2)n1	28.6
CCN(C(=O)CSc1nnc(-c2ccncc2)n1-c1ccccc1)C1CCS(=O)(=O)C1 (centres unmarked)	14.9
Cc1noc(C)c1C(=O)OCC(=O)NCCc1ccc(Cl)cc1	-10.8
COC(=O)c1c(NC(=O)C2COc3ccccc3O2)sc2c1CCN(Cc1ccccc1)C2.Cl (centres unmarked)	-21.7
Cc1ccccc1NS(=O)(=O)c1ccc(C(=O)N2CCN(S(=O)(=O)c3ccccc3)CC2)cc1	24
Cc1nnc(-c2ccc(N3CCCCCC3)c([N+](=O)[O-])c2)o1	-4.52
CCOC(=O)C(CC)Sc1ncnc2c1nnn2-c1ccc(F)cc1 (centres unmarked)	-0.503
CCOc1ccc(NC(=O)CN(C)C(=O)C2CCN(C(=O)c3ccc(Cl)cc3)CC2)cc1OCC	-48.1
O=C(CCNS(=O)(=O)c1ccccc1)OCC(=O)c1ccc[nH]1	0.977
C#Cc1ccc([C@@H]2C=C(C(=O)N3CCOCC3)O[C@H](OCC)[C@H]2CCCO)cc1	-2.34
COc1c(F)c(F)cc2c(=O)c(C(=O)O)cn(C3CC3)c12	-2.34
CC(=C/c1ccccc1)/C=N/n1c(-c2ccco2)n[nH]c1=S	7.11
CCOc1cc(CNn2cnnc2)cc(Br)c1OCC(=O)NC1CCCCC1	-7.6
O=C(c1ccc(Br)o1)N1CCCc2ccccc21	-0.525
O=C(Cn1cnnn1)NCc1ccccc1	29.6
COc1ccc(CN2C(=O)c3ccccc3C2=O)cc1C(=O)N(C)CC(=O)Nc1c(C)cccc1C	-16.7
Cc1cccc2nc(CSc3ccccc3C(=O)O)cn12	26.3
